# Experimental data reported in paper PMC12820563, “FoxP3 forms a head-to-head dimer in vivo and stabilizes its multimerization on adjacent microsatellites”.
# The list shows a part of the results.
# Molecular target: T1, MBP-FoxP1dN (Mus musculus, UniProt P58462 326-579)
# T1 sequence: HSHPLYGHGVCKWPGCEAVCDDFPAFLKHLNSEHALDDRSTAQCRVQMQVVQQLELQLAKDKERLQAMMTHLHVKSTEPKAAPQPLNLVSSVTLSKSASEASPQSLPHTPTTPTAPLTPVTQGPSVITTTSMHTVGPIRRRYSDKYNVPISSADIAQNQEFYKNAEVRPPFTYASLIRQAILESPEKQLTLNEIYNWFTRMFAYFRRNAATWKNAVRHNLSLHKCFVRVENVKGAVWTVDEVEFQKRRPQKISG
# Assay: PD-seq (MBP pull-down with sequencing); 20 mM Tris-HCl pH 7.5, 100 mM NaCl, 1.5 mM MgCl2, 0.4 uM protein, 0.1 uM dsDNA library, 30 min, room temperature, amylose pull-down; high values mean tight binding
# Settings: protein: recombinant; tags: His6-MBP; chain copies: 2; dsDNA, one strand shown
# How it was run: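 In Tris pH 7.5 buffer with NaCl and MgCl2, 0.4 µM His6-MBP-tagged mouse FoxP3 or FoxP1 fragment lacking the N-terminus, from E. coli, met 0.1 µM Klenow-filled double-stranded degenerate DNA library for 30 min at room temperature. Three washes on amylose resin followed capture of the complexes, then proteinase K release of DNA, PCR barcoding and Illumina sequencing. Binding is taken as pooled-replicate reads-per-million enrichment of pull-down relative to input.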
row,Sequence,binding signal
1,GATGATTGTTCTCCCAGCTGATGAATTGACAATATCGAGTAAACAAATTTTCCTAATCTTTCTGTTCAAGCGCCATCTAC,1.86 RPM ratio (pull-down/input)
2,GATGATTGTTCTCCCAGCTGATGAATTCGCACATTCGAGTAAACAAATTTTCCTAATCTTTCTGTTCAAGCGCCATCTAC,0.901 RPM ratio (pull-down/input)
3,GATGATTGTTCTCCCAGCTGATGAATTAACATAGTCGAGTAAACAAATTTTCCTAATCTTTCTGTTCAAGCGCCATCTAC,0.985 RPM ratio (pull-down/input)
4,GATGATTGTTCTCCCAGCTGATGAATTAGGATGATCGAGTAAACAAATTTTCCTAATCTTTCTGTTCAAGCGCCATCTAC,0.916 RPM ratio (pull-down/input)
5,GATGATTGTTCTCCCAGCTGATGAATTATACTCCTCGAGTAAACAAATTTTCCTAATCTTTCTGTTCAAGCGCCATCTAC,0.867 RPM ratio (pull-down/input)
6,GATGATTGTTCTCCCAGCTGATGAATTTACCGGTTCGAGTAAACAAATTTTCCTAATCTTTCTGTTCAAGCGCCATCTAC,1.12 RPM ratio (pull-down/input)
7,GATGATTGTTCTCCCAGCTGATGAATTACCCTCCTCGAGTAAACAAATTTTCCTAATCTTTCTGTTCAAGCGCCATCTAC,0.807 RPM ratio (pull-down/input)
8,GATGATTGTTCTCCCAGCTGATGAATTGGCTAGTTCGAGTAAACAAATTTTCCTAATCTTTCTGTTCAAGCGCCATCTAC,0.845 RPM ratio (pull-down/input)
9,GATGATTGTTCTCCCAGCTGATGAATTTCTGGGCTCGAGTAAACAAATTTTCCTAATCTTTCTGTTCAAGCGCCATCTAC,0.755 RPM ratio (pull-down/input)
10,GATGATTGTTCTCCCAGCTGATGAATTGGCTCTGTCGAGTAAACAAATTTTCCTAATCTTTCTGTTCAAGCGCCATCTAC,0.831 RPM ratio (pull-down/input)
11,GATGATTGTTCTCCCAGCTGATGAATTGCCTGACTCGAGTAAACAAATTTTCCTAATCTTTCTGTTCAAGCGCCATCTAC,0.893 RPM ratio (pull-down/input)
12,GATGATTGTTCTCCCAGCTGATGAATTTCATTAATCGAGTAAACAAATTTTCCTAATCTTTCTGTTCAAGCGCCATCTAC,1.01 RPM ratio (pull-down/input)
13,GATGATTGTTCTCCCAGCTGATGAATTAGTCGAATCGAGTAAACAAATTTTCCTAATCTTTCTGTTCAAGCGCCATCTAC,0.946 RPM ratio (pull-down/input)
14,GATGATTGTTCTCCCAGCTGATGAATTCGAATTATCGAGTAAACAAATTTTCCTAATCTTTCTGTTCAAGCGCCATCTAC,0.96 RPM ratio (pull-down/input)
15,GATGATTGTTCTCCCAGCTGATGAATTAGAGCCTTCGAGTAAACAAATTTTCCTAATCTTTCTGTTCAAGCGCCATCTAC,0.903 RPM ratio (pull-down/input)
16,GATGATTGTTCTCCCAGCTGATGAATTGTGCCTCTCGAGTAAACAAATTTTCCTAATCTTTCTGTTCAAGCGCCATCTAC,1.11 RPM ratio (pull-down/input)

row,Sequence,binding signal
1,GATGATTGTTCTCCCAGCTGATGAATTACGTCTCTCGAGTAAACAAATTTTCCTAATCTTTCTGTTCAAGCGCCATCTAC,0.944 RPM ratio (pull-down/input)
2,GATGATTGTTCTCCCAGCTGATGAATTAGGGTTCTCGAGTAAACAAATTTTCCTAATCTTTCTGTTCAAGCGCCATCTAC,0.852 RPM ratio (pull-down/input)
3,GATGATTGTTCTCCCAGCTGATGAATTCCAGAGCTCGAGTAAACAAATTTTCCTAATCTTTCTGTTCAAGCGCCATCTAC,0.742 RPM ratio (pull-down/input)
4,GATGATTGTTCTCCCAGCTGATGAATTGCCAATCTCGAGTAAACAAATTTTCCTAATCTTTCTGTTCAAGCGCCATCTAC,1.01 RPM ratio (pull-down/input)
5,GATGATTGTTCTCCCAGCTGATGAATTGGTCGGGTCGAGTAAACAAATTTTCCTAATCTTTCTGTTCAAGCGCCATCTAC,0.831 RPM ratio (pull-down/input)
6,GATGATTGTTCTCCCAGCTGATGAATTCCAACGGTCGAGTAAACAAATTTTCCTAATCTTTCTGTTCAAGCGCCATCTAC,0.817 RPM ratio (pull-down/input)
7,GATGATTGTTCTCCCAGCTGATGAATTAATTCACTCGAGTAAACAAATTTTCCTAATCTTTCTGTTCAAGCGCCATCTAC,0.938 RPM ratio (pull-down/input)
8,GATGATTGTTCTCCCAGCTGATGAATTCTAAGCGTCGAGTAAACAAATTTTCCTAATCTTTCTGTTCAAGCGCCATCTAC,0.886 RPM ratio (pull-down/input)
9,GATGATTGTTCTCCCAGCTGATGAATTAAGGAACTCGAGTAAACAAATTTTCCTAATCTTTCTGTTCAAGCGCCATCTAC,0.833 RPM ratio (pull-down/input)
10,GATGATTGTTCTCCCAGCTGATGAATTCACCATATCGAGTAAACAAATTTTCCTAATCTTTCTGTTCAAGCGCCATCTAC,0.984 RPM ratio (pull-down/input)
11,GATGATTGTTCTCCCAGCTGATGAATTAGGACCCTCGAGTAAACAAATTTTCCTAATCTTTCTGTTCAAGCGCCATCTAC,0.894 RPM ratio (pull-down/input)
12,GATGATTGTTCTCCCAGCTGATGAATTAACCTTATCGAGTAAACAAATTTTCCTAATCTTTCTGTTCAAGCGCCATCTAC,0.853 RPM ratio (pull-down/input)
13,GATGATTGTTCTCCCAGCTGATGAATTTACAGGATCGAGTAAACAAATTTTCCTAATCTTTCTGTTCAAGCGCCATCTAC,1.2 RPM ratio (pull-down/input)
14,GATGATTGTTCTCCCAGCTGATGAATTTCAGTCTTCGAGTAAACAAATTTTCCTAATCTTTCTGTTCAAGCGCCATCTAC,0.74 RPM ratio (pull-down/input)
15,GATGATTGTTCTCCCAGCTGATGAATTCTAATGTTCGAGTAAACAAATTTTCCTAATCTTTCTGTTCAAGCGCCATCTAC,1 RPM ratio (pull-down/input)
16,GATGATTGTTCTCCCAGCTGATGAATTACGCTAATCGAGTAAACAAATTTTCCTAATCTTTCTGTTCAAGCGCCATCTAC,1.12 RPM ratio (pull-down/input)
